Data as given in ChEMBL document CHEMBL4888484, “Replenishing the malaria drug discovery pipeline: Screening and hit evaluation of the MMV Hit Generation Library 1 (HGL1) against asexual blood stage Plasmodium falciparum ,using a nano luciferase reporter read-out” (2022).
Out of some 150,000 compounds screened, about 540 (0.36%) showed an effect of 50% or more. Some of the results follow.

Tested on: Plasmodium falciparum
Assay: Primary screen in NF54 nanoGlo assay, in single point, at 2uM, 72h; a lower Z score goes with more inhibition
Assay type: functional, Erythrocyte
Conditions: timepoint 72 hour

| SMILES | % Inhibition | Z score |
| --- | --- | --- |
| COC(C)(C)c1nc(C)c(C(=O)NCc2ccc(C)n(C)c2=O)s1 | -11% | 1.72 |
| Cc1cc(C)c(OC(=O)c2ccc(Cl)cc2Cl)c(CNC(=O)c2ccccc2)c1 | 40% | -5.11 |
| Cc1cc(NC(=O)N2Cc3ccccc3CO2)nn1C(C)C | 0% | 0.06 |
| CCN1CN(C(=O)C2(CF)CCC2)CC1=O | -11% | 1.32 |
| CC(C)(C)c1coc(CNC(=O)Cc2cn3cc(F)ccc3n2)n1 | -4% | 0.6 |
| COC(=O)c1cc(F)c(C)c(NCC(=O)NCC(F)(F)F)c1 | 6% | -1.18 |
| CCc1noc(CN(c2ccc(C#N)cc2)S(C)(=O)=O)n1 | -5% | 0.56 |
| O=C(NC1CCCc2ccccc21)C1CC(O)CN1 (configuration not stated) | -10% | 1.24 |
| Cc1noc(C)c1C(=O)N1CCCCC[C@H]1c1cc(-c2ccc(F)cc2)on1 | -7% | 0.75 |
| CCN(CC)C(=O)c1ccc(-c2ccc(N)cn2)cc1 | -27% | 3.89 |
| CCN1CCC(NC(=O)c2ccc3cccnc3c2)(C(F)(F)F)CC1 | 3% | -0.41 |
| CCCc1noc(Cn2ccc3ccn(Cc4cccnc4)c3c2=O)n1 | -11% | 0.96 |
| Cc1c[nH]nc1CN1CCOc2ccc(Br)cc2C1 | -2% | 0.25 |
| CC(C)(O)Cn1nc(-c2ccc(F)cc2)nc1[C@@H]1CCC(=O)N1 | -11% | 1.43 |
| O=S1(=O)CCC(O)(CNC2CCCc3c(Cl)sc(Cl)c32)C1 (configuration not stated) | -15% | 2.06 |
| O=C(CCN1C(=O)CCC1=O)Nc1nc2cc(F)c(F)cc2s1 | -17% | 2.6 |
| CC1CN(Cc2ccccn2)CCC1Nc1ncccc1C#N (configuration not stated) | -7% | 0.95 |
| Cc1nccn1CCC(=O)NCc1cccc2[nH]ccc12 | -3% | 0.48 |
| CCOC(=O)CCNC(=O)N1CCC(F)(C(=O)NCc2ccncc2)CC1 | -6% | 0.76 |

| SMILES | % Inhibition | Z score |
| --- | --- | --- |
| CNC(=O)C1CCCC1Nc1cc(C)cc(F)c1S(N)(=O)=O (configuration not stated) | -7% | 0.94 |
| O=C(c1cc(-c2cccs2)nc2ccccc12)N(Cc1ccccc1)Cc1ccccc1 | -7% | 0.73 |
| O=C(CC1(O)CCCCC1)N1CCCCC1 | -4% | 0.37 |
| C[C@H]1CN(C(=O)c2ccccc2C#N)C[C@]1(O)C1CC1 | -1% | 0.19 |
| Cn1nccc1-c1csc(Nc2ccc3c(c2)OCCCO3)n1 | 24% | -3.26 |
| COc1cc(C(=O)N[C@H]2CCOC(C)(C)C2)ccc1OC1CCN(C(C)=O)CC1 | -11% | 1.24 |
| CN(C)C[C@@H]1CN(Cc2cccc(-c3ccccc3)c2)C[C@@H]1CO | 0% | -0.01 |
| OC1(Cn2cnc(-c3ccccc3)c2-c2nccs2)CCCCC1 | -6% | 0.73 |
| Cc1nc(CO[C@H]2CCN(S(=O)(=O)c3ccccc3OC(F)(F)F)C2)cs1 | -4% | 0.51 |
| CCC(CC)[C@H]1CCN(CCCCO)C1 | 5% | -0.83 |
| Cc1[nH]c(=O)n(C)c(=O)c1CCC(=O)NCc1ccc(F)cc1 | -10% | 1.58 |
| O=C(Nc1ncc2c(n1)CCCC2)c1ccc([C@@H]2CCCN2)s1 | -2% | 0.33 |
| CCn1cncc1CN[C@@H](CC(C)C)C(=O)NC | -18% | 2.48 |
| Cc1ccc(C)c(NS(=O)(=O)c2ccc3c(c2)OC[C@@H](C(=O)N2CCCCCC2)O3)c1 | -6% | 0.93 |
| CC(=O)N1CCC([C@@H]2CN(C(=O)c3cc(C)cc(C)c3)C[C@H]2CO)CC1 | -9% | 1.07 |
| Cc1noc2nc(C3CC3)cc(C(=O)N[C@@H](Cc3ccccc3)C(N)=O)c12 | -1% | 0.17 |
| O=C(Cc1ccc2c(c1)OCC2)N1CCc2ccccc2C1 | -1% | 0.11 |
| CCN(CC)[C@@H](C)CNC(=O)c1cc(Cl)c[nH]1 | -42% | 4.9 |
| N#C[C@@H](N)c1cccc(C(F)(F)F)c1 | -5% | 0.6 |

| SMILES | % Inhibition | Z score |
| --- | --- | --- |
| CC(C)C(=O)N1CCC(CNC(=O)N(CCO)Cc2ccccc2F)CC1 | -2% | 0.34 |
| CCc1nnc(CN2CCC[C@H]2c2nc3ccccc3s2)o1 | -12% | 1.17 |
| CNC(=O)C1CCN(CC(=O)N2CCC(Cc3ccccc3)CC2)CC1 | -3% | 0.58 |
| Cc1cnn(CCC(=O)N2CCC(c3nnc4n3CCN(C(=O)C(C)C)CC4)CC2)c1 | 3% | -0.54 |
| Cc1cccc(NC2CCCCCC2)n1 | -15% | 2.9 |
| CCn1cc(CC(=O)N2CCc3ccccc32)cn1 | -4% | 0.67 |
| C/C(=C\Cn1cnc(C(N)=O)c1N)COC(C)(C)C | -30% | 3.54 |
| CC(C)CC(CNC(=O)NCC1CCCO1)N(C)C (configuration not stated) | -10% | 1.35 |
| Cc1cccc(CN2CCCN(c3cccc(NC(=O)C(C)C)c3)C2=O)c1 | -7% | 1.01 |
| CCN(CC)Cc1cnc2c(C(=O)N3CCCCCCCC3)cnn2c1 | -5% | 1 |
| CC(C)N1CCN(C(=O)[C@@]23CCC=C2N(C2CCCC2)C(=O)CC3)CC1 | -8% | 1.29 |
| C[C@@H](C(=O)NC(C)(C)C)N1CCC(O)(C(F)(F)F)CC1 | 2% | -0.31 |
| Cc1noc(C)c1Cc1nc(C2CCOCC2)nn1CC(F)(F)F | 0% | 0.07 |
| O=C(O)c1nn(-c2ccc3c(c2)OCO3)c2ccccc2c1=O | -6% | 0.92 |
| CCc1csc(Cn2cc(-c3cc(C#CCO)cs3)nn2)n1 | -7% | 1.13 |
| COc1cc(=O)[nH]cc1C(=O)N1C[C@H](C)Oc2ccccc21 | -5% | 0.96 |
| CCOc1cc(CNc2cc(C)ccc2C)cc(Br)c1OCC(=O)Nc1ccccc1 | -2% | 0.3 |
| C[C@H](NCCC1Cc2ccccc2C1)c1cnccn1 | -1% | 0.16 |
